This is an account of results in the supplement of paper PMC4894684.

Where a name gives a salt, the structure may show the parent alone. ± gives the standard deviation of the averaged measurements. Hit rate of the full screen: of about 1,000 compounds, about 15 (2%) showed an effect of 50% or more. Some of the results follow.
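Also: confluent HFF monolayers, run in parallel with the Toxoplasma growth screen as a host toxicity counterscreen.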

For the assay, the system named is HFF. As to the kind of experiment: uninfected host cell viability relative to vehicle control; higher = less host cell toxicity. The conditions noted are these: 5 µM; 72 h; oxygen 21 %.
For the compound `COc1cc2c(cc1OC)-c1c/c(=N\c3c(C)cc(C)cc3C)n(C)c(=O)n1CC2` [Trequinsin hydrochloride], the “uninfected host cell viability” value was found to be 78.53 ± 0.23%.

Turning to `N=C(CC(O)COc1ccccc1-c1ccccc1)N1CCCCC1` (stereo not given), the “uninfected host cell viability” value was 89.4 ± 2.9%.

Regarding `CCCOc1ccc(Br)cc1-c1cc(-c2ccc(Cl)cc2)[nH]c1-c1ccncc1`, the “uninfected host cell viability” value came out at 86 ± 1.1%.

With `Cc1nc2c(O)cccc2c(=O)[nH]1`, the “uninfected host cell viability” value came out at 84.42 ± 0.42%.

Turning to `CCCCc1nc2ccn(Cc3cccs3)c(=O)c2n1Cc1ccc(-c2ccccc2-c2nn[nH]n2)cc1`, the “uninfected host cell viability” value was determined as 89.2 ± 2.5%.

Take `Cc1cc(F)c(Nc2ncnc3cc(OCc4ccccc4)ccc23)cc1O`: the “uninfected host cell viability” value came to 83.6 ± 3.9%.

`COc1ccc2c3c1O[C@H]1C[C@@H](O)C=C[C@@]31CCN(C)C2` [Galanthamine hydrobromide]: the “uninfected host cell viability” value came to 89 ± 1.9%.

As to `O=C1c2ccccc2CCC1CNCCc1ccc(O)cc1` (stereo not given) [HEAT hydrochloride], the “uninfected host cell viability” value was 89.7 ± 6%.

Turning to `Oc1cc(O)cc(/C=C/c2ccc(O)c(O)c2)c1` [Piceatannol], the “uninfected host cell viability” value is 87.1 ± 1.1%.

With `CCCCCS(=O)(=O)CCCCCCCCCCn1c(-c2ccc(O)cc2)c(C)c2cc(O)ccc21`, the “uninfected host cell viability” value came out at 90.97 ± 0.31%.

On to `NC(C(=O)O)c1ccc(C(=O)O)c(C(=O)O)c1` (racemic), for which the “uninfected host cell viability” value came out at 90 ± 0.93%.

As to `Nc1ncnc2c1ncn2[C@@H]1O[C@H](CO)C[C@H]1O` [Cordycepin], the “uninfected host cell viability” value was 88.5 ± 4.2%.

For `Nc1nc(Nc2ccccc2)nc2c1ncn2[C@@H]1O[C@H](CO)[C@@H](O)[C@H]1O`, the “uninfected host cell viability” value is 89.8 ± 5.9%.

`Cc1ccc(S(=O)(=O)/C=C/C#N)cc1`: the “uninfected host cell viability” value is 94.2 ± 1.7%.

Consider `O=C(OCCN1CCCCC1)c1c[nH]c2ccccc12`, for which the “uninfected host cell viability” value amounted to 86.1 ± 0.54%.

Turning to `Cc1cccc(C)c1NC(=O)C[N+](C)(C)C`, the “uninfected host cell viability” value was 84.7 ± 0.16%.

As to `O=C1CC2(CCCC2)CC(=O)N1CCCCNCC1COc2ccccc2O1` (stereo not given), the “uninfected host cell viability” value worked out at 86.03 ± 0.16%.

Regarding `CCCc1c(OCCCOc2ccc(OCC(=O)O)cc2)ccc(C(C)=O)c1O`, the “uninfected host cell viability” value was 92.4 ± 3.6%.

As to `CC[C@H](C)C(=O)O[C@H]1C[C@H](O)C=C2C=C[C@H](C)[C@H](CC[C@@H](O)C[C@@H](O)CC(=O)O)[C@H]21` [Pravastatin sodium salt], the “uninfected host cell viability” value worked out at 87.2 ± 2.7%.

As to `CN1CC(=O)N=C1NC(=O)Nc1cccc(Cl)c1` [Fenobam], the “uninfected host cell viability” value amounted to 80.93 ± 0.68%.

For `CC1(C)CC(=O)C(C2C3=C(CC(C)(C)CC3=O)Oc3ccccc32)C(=O)C1` (stereo not given), the “uninfected host cell viability” value came to 86.9 ± 2.4%.

For the compound `O=S(=O)(c1cccc2c(Cl)cccc12)N1CCCNCC1` [ML 9 hydrochloride], the “uninfected host cell viability” value was 83.68 ± 0.6%.

On to `CNCC[C@@H](Oc1ccccc1C)c1ccccc1` [Tomoxetine hydrochloride], for which the “uninfected host cell viability” value was 86.5 ± 2%.

As for `CO[C@@H]1[C@H](O)[C@@H](CO)O[C@H]1n1cnc2c(NC3CCCCC3)ncnc21`, the “uninfected host cell viability” value worked out at 92.91 ± 0.28%.

Regarding `NS(=O)(=O)C#Cc1ccccc1` [Pifithrin->m], the “uninfected host cell viability” value turned out to be 97.12 ± 0.7%.

`CC(C)C1C2CCC(C2)C1N` (stereo not given): the “uninfected host cell viability” value worked out at 67.2 ± 4.1%.

On to `Nc1ncnc2c1nc(Br)n2[C@@H]1O[C@@H]2COP(=O)(O)O[C@H]2[C@H]1O` [8-Bromo-cAMP, sodium salt], for which the “uninfected host cell viability” value was determined as 87.7 ± 2%.

Take `Nc1nccc(-c2ccc3noc(-c4ccc(Cl)cc4)c3c2)n1` [PIM 1 Inhibitor 2]: the “uninfected host cell viability” value came out at 84.3 ± 2.9%.

As to `CNCCCCOc1ccccc1Cc1ccccc1` [Bifemelane hydrochloride], the “uninfected host cell viability” value was determined as 87.7 ± 3%.

As to `O=C1NN(C(=O)Nc2ccc(Br)cc2)[C@@H](c2ccccc2)[C@@H]1c1ccccc1`, the “uninfected host cell viability” value was found to be 91.67 ± 0.67%.

For the compound `N[C@@H]1CCN(O)C1=O`, the “uninfected host cell viability” value was found to be 93.8 ± 8.6%.

For `CCN(CC)CC1CCCCN1CC(=O)N1c2ccccc2C(=O)Nc2cccnc21` (stereo not given), the “uninfected host cell viability” value was determined as 83.86 ± 0.46%.

For `NC(=O)Nc1sc(-c2ccc(F)cc2)cc1C(N)=O`, the “uninfected host cell viability” value is 78.61 ± 0.24%.

Turning to `Cn1cc(C2=C(c3cn(CCCSC(=N)N)c4ccccc34)C(=O)NC2=O)c2ccccc21` [Ro 31-8220 mesylate], the “uninfected host cell viability” value is 14.2 ± 0.54%.

Consider `CCCCc1nn(-c2ccccc2C(F)(F)F)c(=O)n1Cc1ccc(-c2ccccc2S(=O)(=O)NC(=O)c2sccc2C)cc1`, for which the “uninfected host cell viability” value turned out to be 84.8 ± 3.6%.

As to `O=[N+]([O-])c1cc(Cl)ccc1S(=O)(=O)N1CCN(Cc2ccccc2)CC1`, the “uninfected host cell viability” value was found to be 98.8 ± 3.2%.

In the case of `Cc1c(CC(C)(C)C(=O)O)n(Cc2ccc(Cl)cc2)c2ccc(F)cc12`, the “uninfected host cell viability” value is 91.8 ± 12%.

Take `CS(=O)(=O)c1ccc(Cn2c3c(c4cc(F)cc(F)c42)CCCC3CC(=O)O)cc1` (stereo not given): the “uninfected host cell viability” value worked out at 97.5 ± 3.3%.

As for `C/N=C(/NC#N)NCCSCc1csc(NC(=N)N)n1` [Tiotidine], the “uninfected host cell viability” value stood at 88.5 ± 3.6%.

Consider `CC[C@]1(O)C[C@@H]2CN(CCc3c([nH]c4ccccc34)[C@@](C(=O)OC)(c3cc4c(cc3OC)N(C)[C@H]3[C@@](O)(C(=O)OC)[C@H](OC(C)=O)[C@]5(CC)C=CCN6CC[C@]43[C@@H]65)C2)C1` [Vinblastine sulfate], for which the “uninfected host cell viability” value was 62.13 ± 0.3%.

For the compound `CCCCC#Cc1nc(NC)c2ncn([C@@H]3O[C@H](CO)[C@@H](O)[C@H]3O)c2n1`, the “uninfected host cell viability” value worked out at 87.5 ± 1.2%.

Regarding `CN(CCOc1ccc(-c2ccc3c(c2)OCO3)cc1C(C)(C)C)CC(=O)O`, the “uninfected host cell viability” value stood at 89.62 ± 0.17%.

As for `N[C@@H](CSS(=O)(=O)O)C(=O)O` [S-Sulfo-L-cysteine sodium salt], the “uninfected host cell viability” value came to 99.5 ± 1.1%.

`CC(C)c1onc(-c2c(Cl)cccc2Cl)c1COc1ccc(/C=C/c2cccc(C(=O)O)c2)c(Cl)c1`: the “uninfected host cell viability” value worked out at 96.2 ± 2.9%.

Consider `C[C@@]1(O)[C@H](O)[C@@H](CO)O[C@H]1n1cnc2c(NC3CCCC3)nc(Cl)nc21`, for which the “uninfected host cell viability” value came to 102 ± 2.9%.

`Cc1[nH]c(/C=C2\C(=O)Nc3ccc(S(=O)(=O)Cc4c(Cl)cccc4Cl)cc32)c(C)c1C(=O)N1CCC[C@@H]1CN1CCCC1`: the “uninfected host cell viability” value was 89.5 ± 2.3%.

Take `CC(C)N(CCC(=O)c1ccc2ccccc2c1)Cc1ccccc1`: the “uninfected host cell viability” value was 85.3 ± 0.21%.

As to `CC(O)(C(=O)Nc1ccc(S(=O)(=O)c2ccccc2)cc1)C(F)(F)F` (stereo not given), the “uninfected host cell viability” value came out at 99.7 ± 2.5%.

Regarding `CC(CCc1ccc(O)cc1)NCCc1ccc(O)c(O)c1` (stereo not given) [Dobutamine hydrochloride], the “uninfected host cell viability” value is 85.8 ± 4.4%.

For `C1CCC2(CC1)CCNCC2` [4,4-Pentamethylenepiperidine hydrochloride], the “uninfected host cell viability” value stood at 84.79 ± 0.68%.

On to `CC1=C(C(=O)OCCN(Cc2ccccc2)c2ccccc2)C(c2cccc([N+](=O)[O-])c2)C(P2(=O)OCC(C)(C)CO2)=C(C)N1` (stereo not given) [Efonidipine hydrochloride monoethanolate], for which the “uninfected host cell viability” value turned out to be 98.4 ± 7.4%.

For `CCN1CCC[C@H]1CNC(=O)c1cc(S(N)(=O)=O)ccc1OC` [(S)-(-)-Sulpiride], the “uninfected host cell viability” value amounted to 90.2 ± 4.3%.

Consider `Clc1ccc(-c2nc3sccn3c2/C=N/OCc2ccc(Cl)c(Cl)c2)cc1`, for which the “uninfected host cell viability” value worked out at 98.6 ± 1.2%.

Regarding `COc1cc2ncnc(Nc3ccc(Oc4ccccc4)cc3)c2cc1OC`, the “uninfected host cell viability” value amounted to 79.69 ± 0.58%.

With `CC1CCN(CCCC(=O)c2ccc(F)cc2)CC1` [Melperone hydrochloride], the “uninfected host cell viability” value is 88.9 ± 1.8%.
